Here are results for 66 molecules from ChEMBL document CHEMBL4888484, “Replenishing the malaria drug discovery pipeline: Screening and hit evaluation of the MMV Hit Generation Library 1 (HGL1) against asexual blood stage Plasmodium falciparum ,using a nano luciferase reporter read-out” (2022).

Hit rate of the full screen: of about 4,800 compounds, about 410 (8.5%) showed an effect of 50% or more. This is one part of the list.

Broadly, the % Inhibition is the drop in the measured response relative to a control, in per cent.

The test system of the assay is Plasmodium falciparum. The experiment in a line: Confirmatory screen in NF54 pLDH assay, in single point, at 2uM, 72h. It counts as functional, Erythrocyte. As to conditions: timepoint 72 hour.
`Cc1cc(=O)c(OCC(=O)N2CCN([C@@H](c3ccccc3)c3ccc(Cl)cc3)CC2)c[nH]1`: the “% Inhibition” value is 74%. In the case of `CC(CCc1ccccc1)N1C(=O)NC(=O)C2(Cc3c(ccc4ccccc34)N(C)C2)C1=O` (stereo unspecified), the “% Inhibition” value was found to be 6%. The value for `COc1cnc(C(F)(F)F)nc1N1CCNCC1` was 9%; that for `CCN1C[C@]2(COC)CC[C@H](OC)[C@@]34C5C[C@@H]6[C@@H](OC)C[C@@](O)(C5[C@H]6OC(=O)c5ccccc5)[C@@H](CC23)C14` (stereo partly specified) was 13%. With `Cc1ccccc1[C@H](C)NC1=NCCO1` the figure was 6%.

Regarding `CC1CCCCC1N1CCN(C(=O)COc2ccc(Br)cc2)CC1` (stereo unspecified), the “% Inhibition” value turned out to be 10%. Take `Cc1cccc(CN(C)C)c1OC(=O)N(C)C`: the “% Inhibition” value was determined as 12%.

Turning to `Cc1cc(C(F)(F)F)c2c(C(N)=O)cn(C(C)(C)C)c2n1`, the “% Inhibition” value was determined as 11%.

For `COc1ccc(-c2cc([C@H]3CN4CC[C@H]3C[C@@H]4CNC(=O)C3CCCCC3)n(C)n2)cc1OC`, the “% Inhibition” value is recorded as -17%.

As to `Cc1cc(C(=O)NC2CC(C)n3ccnc32)nn1C(C)C` (stereo unspecified), the “% Inhibition” value came to 70%.

In the case of `CNCCc1cc(OC)c(OC)c2c1ccc1cc(OC)c(OC)cc12`, the “% Inhibition” value was 7%.

Turning to `CN1CC2CN(Cc3ccccc3)CC(C1)C2=O`, the “% Inhibition” value was -5%. The value for `CN1CCC2CCN(C(=O)c3cc(C4CC4)on3)C2C1` (stereo unspecified) was 13%; that for `O=C(NC1CCCCC1)N1C[C@@H]2C[C@H](C1)c1c(-c3ccccc3F)ccc(=O)n1C2` was 2%; that for `CCCC(=O)N(C(=O)CCC)c1ccc2[nH]c(=O)oc2c1` was -1%.

Regarding `CC1CN2CCCC2CN1C(=O)c1cc(C2CC2)on1` (stereo unspecified), the “% Inhibition” value is on record as -9%. `Cc1nc(Cn2nc(C(C)(C)C)oc2=O)oc1C`: the “% Inhibition” value is on record as 9%. The value for `CN(C)C(=O)CCCn1ccc(NC(=O)C2C(C)(C)C2(C)C)n1` was -14%; that for `c1cc(-n2cnnn2)ccc1N[C@H]1CN2CCC1CC2` was -5%; that for `CN(C)c1ccccc1NS(=O)(=O)c1c(Br)cc2[nH]c(=O)oc2c1Cl` was 2%.

In the case of `CC1CCNC(=O)C1NC(=O)Nc1ccc(C#N)c(C(F)(F)F)c1` (stereo unspecified), the “% Inhibition” value came out at 12%.

Regarding `O=C(N1CCN(C(c2ccccc2)c2ccccc2)CC1)C(O)(c1ccccc1)c1ccccc1`, the “% Inhibition” value is reported as -14%. The value for `CC[C@H]1C[N@@]2CC[C@H]1C[C@@H]2COC(=O)Nc1ccccc1` was 7%. With `O=C1CCN(C(=O)c2ccc(Cl)c(Cl)c2)CC1` the figure was 12%; with `c1cc(N2CC[C@@]3(CCCNC3)C2)c2sccc2n1`, 98%; with `Cc1ccc(Cl)c(NC(=O)N2CCC[C@H](c3n[nH]c(=O)o3)C2)c1`, 2%. For the molecule `O=C1O[C@@H]2CCN(Cc3ccccc3)[C@H]1C2`, the “% Inhibition” value was -8%.

Regarding `CC(C)N1CCN(c2nc3nc[nH]c(=O)c3s2)CC1`, the “% Inhibition” value amounted to 12%. In the case of `O=C1C2CCN(CC2)[C@H]1Cc1ccc(Cl)cc1`, the “% Inhibition” value is given as 11%.

As for `COC(=O)COc1ccc(C#N)c(Cl)c1`, the “% Inhibition” value came out at 1%. The value for `CC(=O)N(C1CCN(Cc2ccccc2)CC1)C1(C(=O)Nc2ccc3[nH]ccc3c2)CCN(C)CC1` was 101%; that for `O[C@@]1(Cc2ccccc2)CN2CCC1CC2` was 3%. The value for `Cc1ccc(CN2CC(=O)N(C)CC23CCCCC3)nc1` was -19%; that for `C=CCN(C)C[C@H]1CN2CC[C@H]1C[C@@H]2CNC(=O)Nc1ccc(OC(F)(F)F)cc1` was 17%; that for `C=CCCC(CN1C[C@H]2CC=CC[C@H]2C1)Oc1ncc(F)cn1` (stereo partly specified) was 64%.

With `CCC1(CC)C(=O)N(CN2CCCC2=O)C(=O)N(CN2CCCC2=O)C1=O`, the “% Inhibition” value was -10%. The value for `CN(C)S(=O)(=O)Nc1cccc(OC(=O)N2CCOCC2)c1` was -17%; that for `CN1CC2(CN(Cc3cnc4ccc(Cl)cn34)C2)OC1=O` was 6%; that for `CCOc1ccccc1N1C(=O)NC(=O)[C@@]2(Cc3cc(C)ccc3N(C)C2)C1=O` was -7%. The value for `Clc1ccc(C2CC(c3cccnc3)Nc3nnnn32)cc1` (stereo unspecified) was -12%.

Take `CC[C@H]1C[N@@]2CC[C@H]1C[C@@H]2COC(=O)Nc1ccc(C(C)(C)C)cc1`: the “% Inhibition” value was determined as 8%. The value for `Cc1ccc(NC(=O)N2CCC(=O)CC2)cc1Br` was 1%; that for `Cn1nc(OC(=O)Nc2ccccc2)cc1C(F)(F)F` was 6%. For `CN1CC[C@]2(CCN(c3ccnc4ccsc34)C2)C1`, the “% Inhibition” value stood at 97%.

`CN1CCC(N(C)C2CCCCC2N(C)C(=O)Cc2ccc(O)cc2)CC1` (stereo unspecified): the “% Inhibition” value came out at 4%. For `CC(C)N1C(=O)NC(=O)C2(Cc3ccccc3N3CCN(Cc4ccccc4)CC32)C1=O` (stereo unspecified), the “% Inhibition” value was 19%. On to `CN1CCc2nc3ccc(F)cc3c(C(N)=O)c2C1`, for which the “% Inhibition” value is given as -10%.

Regarding `O=C1CCN(C(=O)c2ccc(F)c(Cl)c2)CC1`, the “% Inhibition” value turned out to be 13%. Turning to `COC(=O)[C@H]1CN(Cc2noc(C)n2)C[C@@H]1c1ccc(F)cc1F`, the “% Inhibition” value is -16%. With `COc1ccc(-c2ccccc2N2CCNCC2)c2ccc(C)nc12` the figure was 10%; with `CC(C)c1nc(CC(=O)N2CCN(Cc3nnc4n3CCCCC4)CC2)cs1`, -12%; with `O=S(=O)(NC12CCCC1CNC2)c1onc(C2CC2)c1Cl` (stereo unspecified), 97%. Regarding `O=C1N[C@](c2ccccc2)(C(F)(F)F)c2ccc3ccccc3c2O1`, the “% Inhibition” value was 14%. With `CNc1snc(C)c1C(=O)N1CCC(C(=O)OC)(c2ccccc2)CC1` the figure was 4%; with `COc1cc(=O)c(C(=O)N2CCC3(CC2)OCCO3)nn1-c1ccc(C)cc1`, -1%.

As to `FC1(F)C[C@@H](COc2cccnc2)N(C2CCCCC2)C1`, the “% Inhibition” value turned out to be 12%. The value for `CC[C@H](O)c1c[nH]c(C(=O)C(Cl)(Cl)Cl)c1` was 1%; that for `O=C(Cc1cnc2ccccn12)N1C[C@H]2CC[C@@H](C1)N(Cc1ccccn1)C2` was 20%; that for `CC(=O)N1N=C(c2cccnc2)O[C@H]1c1ccc(F)cc1` was -20%. The value for `CCn1nccc1CNCCc1ccccc1` was 8%; that for `Cc1ccc2c(c1)CCCN2C(=O)CN1CC=C(c2cnn(C)c2)CC1` was 37%; that for `CCC(CC)c1cc([C@H]2CN3CC[C@H]2C[C@@H]3CNC(=O)Cc2cccs2)nc(-c2ccncc2)n1` was 7%. Take `Cc1nn(C)cc1/C=C1\CC2C3CCC4CC(O)CCC4(C)C3CCC2(C)C1O` (stereo unspecified): the “% Inhibition” value was 7%. With `Nc1ccc(N2CCN3CCC[C@H]3C2)cc1` the figure was 22%; with `O=c1c2cc(Cl)ccc2nc(-c2cccnc2)n1-c1ccc(Br)cc1`, 4%.

Take `Cn1cc(Br)cc1C(=O)C(Cl)(Cl)Cl`: the “% Inhibition” value was -6%.
